PubChem BioAssay AID1347165 (National Center for Advancing Translational Sciences (NCATS), 2019)
Among all 220,000 compounds or so, about 5,700 (2.6%) were called active. This list was built around the results that the source calls inconclusive (neither active nor inactive); the mix of calls is not that of the screen. Calls come from the whole dose curve; as a rule, active = well fitted inhibition curve with a large enough effect; inconclusive = small, poorly fitted or top-dose-only effect; inactive = no such curve, though single readings can be large or run the other way. A potency beside an inconclusive call is a rough fit, not a confirmed value.
Note: nearly all actives have a fitted effect of over 70% in size.
Potency is the fitted concentration of half-maximal effect; tags give direction and shape of the fitted curve.
Throughout, for activity change, negative = inhibition: 0% is about no effect.

The molecules below were run against Lysine-specific demethylase 5B (Homo sapiens) (UniProt Q9UGL1) (assay: Primary screen for KDM5B Histone Demethylases FDH-coupled qHTS). Conditions: FDH-coupled NADH fluorescence (FDH is formaldehyde dehydrogenase); activity change, negative = inhibition: at 57.7 µM (top of the series) unless noted.
Chain of UniProt Q9UGL1 (Q9UGL1 whole entry, looked up): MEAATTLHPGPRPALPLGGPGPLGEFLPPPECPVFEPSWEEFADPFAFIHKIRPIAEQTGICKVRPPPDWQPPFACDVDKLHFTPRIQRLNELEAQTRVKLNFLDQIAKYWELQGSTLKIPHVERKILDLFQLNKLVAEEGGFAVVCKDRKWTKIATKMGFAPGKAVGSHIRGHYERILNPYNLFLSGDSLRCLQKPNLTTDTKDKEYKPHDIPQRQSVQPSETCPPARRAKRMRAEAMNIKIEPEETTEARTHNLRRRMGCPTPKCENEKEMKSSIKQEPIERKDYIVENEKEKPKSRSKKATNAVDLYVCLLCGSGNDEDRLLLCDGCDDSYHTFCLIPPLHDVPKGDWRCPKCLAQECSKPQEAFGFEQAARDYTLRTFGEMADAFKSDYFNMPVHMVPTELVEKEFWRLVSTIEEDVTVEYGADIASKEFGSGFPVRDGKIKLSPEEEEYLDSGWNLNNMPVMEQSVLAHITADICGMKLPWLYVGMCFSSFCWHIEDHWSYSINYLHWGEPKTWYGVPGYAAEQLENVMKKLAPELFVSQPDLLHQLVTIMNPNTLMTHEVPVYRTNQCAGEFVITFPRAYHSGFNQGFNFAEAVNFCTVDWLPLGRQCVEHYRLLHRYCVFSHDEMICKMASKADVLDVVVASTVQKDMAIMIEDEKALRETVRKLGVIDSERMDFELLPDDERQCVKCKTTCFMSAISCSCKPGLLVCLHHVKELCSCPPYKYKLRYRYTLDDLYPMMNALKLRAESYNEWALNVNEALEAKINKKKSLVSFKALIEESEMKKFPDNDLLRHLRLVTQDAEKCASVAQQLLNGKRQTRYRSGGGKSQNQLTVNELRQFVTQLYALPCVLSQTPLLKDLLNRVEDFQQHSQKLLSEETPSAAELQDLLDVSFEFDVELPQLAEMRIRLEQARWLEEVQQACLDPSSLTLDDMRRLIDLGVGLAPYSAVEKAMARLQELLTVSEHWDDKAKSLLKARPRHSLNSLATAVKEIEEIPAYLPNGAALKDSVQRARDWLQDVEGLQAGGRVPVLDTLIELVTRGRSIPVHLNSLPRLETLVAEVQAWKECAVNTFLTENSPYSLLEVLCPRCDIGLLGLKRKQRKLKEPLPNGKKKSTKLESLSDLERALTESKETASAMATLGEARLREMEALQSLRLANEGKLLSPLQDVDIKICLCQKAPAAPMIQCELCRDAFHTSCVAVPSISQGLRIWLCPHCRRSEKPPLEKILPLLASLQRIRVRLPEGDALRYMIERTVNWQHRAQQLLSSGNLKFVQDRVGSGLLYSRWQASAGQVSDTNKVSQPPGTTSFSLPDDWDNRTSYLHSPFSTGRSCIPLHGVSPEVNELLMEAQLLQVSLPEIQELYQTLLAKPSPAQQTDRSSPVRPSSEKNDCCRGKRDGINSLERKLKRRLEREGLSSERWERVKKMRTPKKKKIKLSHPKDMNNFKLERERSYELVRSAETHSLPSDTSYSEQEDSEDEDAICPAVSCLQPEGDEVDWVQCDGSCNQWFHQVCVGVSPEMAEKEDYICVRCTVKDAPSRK
Method in brief: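 qHTS format, multiple compound concentrations. Buffer 50 mM HEPES pH 7.5/0.01% Tween-20; 200 nM KDM5BΔAP final; 10 min compound preincubation; substrate-mix levels 12.5 µM peptide, 25 µM α-KG, 0.25 mM NAD⁺; 30 min RT; ΔRFU.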
For `CCCn1c(N)c(N2CCOCC2)c(=O)n(CC(=O)NCc2ccc(C)cc2)c1=O`, the Potency was “inactive”.
For `Cc1cccc(N2CCN(CC(=O)N3C[C@@H](C)[C@](O)(C4CCC4)C3)CC2)c1`, the Potency was “inactive”.
In the case of `CC(C)OCCCNC(=O)COc1ccc2oc3c(c2c1)CCCC3`, the Potency is reported as inconclusive: 25.1 µM [inhibitor, single point].
With `Cc1ccc(S(=O)(=O)c2cn(Cc3ccccc3)c3cc(N4CCOCC4)c(F)cc3c2=O)cc1` the Potency was inconclusive: 14.1 µM [inhibitor, partial curve, poor fit].
`O=C1Nc2ccc(-c3cccc(C(F)(F)F)c3)cc2C(=O)N2CCN(C(=O)c3ccccc3)C[C@H]12` was tested, and the Potency was inconclusive: 31.6 µM [inhibitor, single point].
In the case of `CN(C)C(=O)C(Sc1nc2cc(S(=O)(=O)N3CCCCC3)ccc2o1)c1ccccc1` (stereo unspecified), the Potency is reported as “inactive”.
With `Cc1cccnc1CNC(=O)[C@H]1C[C@@H](C(=O)O)N(C)[C@H]1c1cccc(Cl)c1` the Potency was inconclusive: 20 µM [inhibitor, partial curve].
With `CCN(CC)c1ncccc1CNC(=O)c1c(C)noc1C` the Potency was “inactive”.
With `Cc1c(CC(=O)Nc2ccc(C(C)(C)C)cc2)c(=O)oc2cc(O)ccc12` the Potency was inconclusive: 25.1 µM [inhibitor, partial curve, poor fit].
For `CCOc1ccc(CNC(=O)Cn2c(=O)c3cccn3c3cccnc32)cc1`, the Potency was inconclusive: 25.1 µM [inhibitor, single point].
`CC(C)CN1CCC(NC(=O)Cc2cc(Cl)c3c(c2)OCCO3)CC1` was tested, and the Potency was “inactive”.
With `CC(=O)c1ccc(NC(=O)N[C@@H]2C=C(C(=O)NCCC(N)=O)C[C@@H](O)[C@@H]2O)cc1` the Potency was inconclusive: 28.2 µM [inhibitor, partial curve, poor fit].
For `Cc1noc2c(-c3cccnc3NC(C)C)cc(-c3ccccc3)nc12`, the Potency was active: 31.6 µM.
In the case of `COc1ccc(C2Cn3nnc(-c4nc(C5CCCCC5)no4)c3CO2)cc1` (stereo unspecified), the Potency is reported as inconclusive: 25.1 µM [inhibitor, single point].
In the case of `CCn1c(CNC(=O)c2ccc3c(c2)OCO3)nnc1SCC(=O)c1ccc(F)cc1`, the Potency is reported as “inactive”.
For `COCCCNC(=O)CCc1ccc2c(c1)CN(S(C)(=O)=O)CCO2`, the Potency was “inactive”.
For `CN1C[C@@H](NC(=O)c2ccc(F)cc2)C[C@H]1c1nc(-c2ccc(Cl)cc2)no1`, the Potency was “inactive”.
In the case of `CN1Cc2cccn2CC1CNC(=O)c1nccn1C` (stereo unspecified), the Potency is reported as active: 14.1 µM.
With `CN(C)c1ccc(CN2CCn3c(nnc3-c3ccc(Cl)cc3)C2)cc1` the Potency was inconclusive: 44.7 µM [inhibitor, partial curve].
In the case of `COc1cccc(NC(=O)Cn2c(=O)n(Cc3ccc4c(c3)OCO4)c(=O)c3oc4ccccc4c32)c1`, the Potency is reported as inconclusive: 35.5 µM [inhibitor, partial curve, poor fit].
With `Cc1cccc(C)c1NC(=O)Cc1c[nH]c2ccccc12` the Potency was “inactive”.
In the case of `CN(C(=O)CSc1nc(CN2CCOCC2)nc2ccccc12)C1CCS(=O)(=O)C1` (stereo unspecified), the Potency is reported as “inactive”.
With `CNc1nc2c(c(C(=O)N3CCCC3)n1)CN(C(=O)Cn1nc(C)cc1C)CC2` the Potency was inconclusive: 20 µM [inhibitor, single point].
`CCCCN(C(=O)COC(=O)c1n[nH]c2ccccc12)C1CCS(=O)(=O)C1` (stereo unspecified) was tested, and the Potency was inconclusive: 39.8 µM [inhibitor, single point].
For `COC(F)(C(=O)Nc1ccccc1C(C)C)C(F)(F)F` (stereo unspecified), the Potency was “inactive”.
With `COc1ccc(NC(=O)[C@H](Cc2ccccc2)N2Cc3ccccc3C2=O)cc1OC` the Potency was inconclusive: 17.8 µM [inhibitor, partial curve, poor fit].
`CCN1CCN(C(=O)c2cc3ccc(OC)cc3[nH]2)CC1` was tested, and the Potency was “inactive”.
In the case of `CCNC(=O)NCC1CCN(Cc2cc(Cl)cc(Cl)c2)C1` (stereo unspecified), the Potency is reported as “inactive”.
For `CCN(CC)C(=O)C1=C(C)Nc2nc3ccccc3n2C1c1cccc(OC)c1` (stereo unspecified), the activity change, negative = inhibition was inconclusive: -35.4% [inhibitor].
For `N#Cc1ccc(-c2csc(C3CC3)n2)cc1`, the Potency was inconclusive: 39.8 µM [inhibitor, single point].
For `CCOc1ccccc1CN1CCCN(Cc2ccncc2)C(c2ccccc2)CC(=O)NCC1` (stereo unspecified), the Potency was inconclusive: 28.2 µM [inhibitor, partial curve, poor fit].
In the case of `CC(=O)Nc1cc(C(=O)N2CCC(C)CC2)c2ccc(C)nc2c1`, the Potency is reported as active: 22.4 µM.
`COc1cc(C2CC(=O)Nc3c(C(=O)O)cn(-c4ccc(F)cc4)c32)cc(OC)c1OC` (stereo unspecified) was tested, and the Potency was inconclusive: 8.91 µM [inhibitor, partial curve, poor fit].
`COC(=O)c1ccccc1NC(=O)Cn1cccc1-c1nc(-c2ccccc2)no1` was tested, and the Potency was active: 28.2 µM.
With `O=C(O)c1ccc(CN2Cc3[nH]cnc3C[C@H]2c2nc(-c3ccc4ccccc4c3)no2)cc1` the Potency was inconclusive: 22.4 µM [inhibitor, partial curve, poor fit].
In the case of `CCOc1ccccc1NC(=O)Cn1c(=O)n(CC)c(=O)c2c1cc(C)n2C`, the Potency is reported as “inactive”.
With `O=C(Nc1ccc(F)cc1)c1cc2cc(F)ccc2[nH]1` the Potency was inconclusive: 39.8 µM [inhibitor, single point].
`O=C(O)/C(=C/C=C/c1ccccc1)NC(=O)c1ccccc1` was tested, and the Potency was inconclusive: 25.1 µM [inhibitor, single point].
With `Cc1ccc2nc(/C(C#N)=C\c3ccc(-c4cc(C(=O)O)cc(C(=O)O)c4)o3)[nH]c2c1` the Potency was inconclusive: 28.2 µM [inhibitor, partial curve, poor fit].
For `Cc1ccc(-c2cc(C(=O)O)c3cccc(C)c3n2)s1`, the Potency was “inactive”.
In the case of `COc1cccc(-c2cc(C(F)(F)F)n3ncc(C(=O)OC(C)C)c3n2)c1`, the Potency is reported as inconclusive: 14.1 µM [inhibitor, partial curve, poor fit].
For `O=C(Nc1ccc(CC(=O)N2CCOCC2)cc1)c1cc(F)cc(F)c1`, the Potency was “inactive”.
With `COc1ccc(OC)c(S(=O)(=O)N2CCN(c3cccc(C)c3C)CC2)c1` the Potency was “inactive”.
`COCCNC(=O)c1cnc2n[nH]c(-c3ccccc3OC)c2n1` was tested, and the Potency was “inactive”.
`O=C(Cc1ccccc1)N1CCC(Oc2cnc3c(ccn3-c3cncnc3)c2)CC1` was tested, and the Potency was “inactive”.
With `COc1cc(C)cc2oc(=O)c(CC(=O)Nc3nc(CC(=O)O)cs3)c(C)c12` the Potency was inconclusive: 20 µM [inhibitor, partial curve, poor fit].
